According to a compilation of properties of binary mixtures (doi:10.1080/00319104.2019.1566461):
Some of these densities may be calculated back from excess volumes.

Test: xn = mol fraction of the nth substance listed
Conditions: 101.3 kPa

CCOS(=O)(=O)[O-].CC[n+]1ccn(C)c1 + CC(C)C(=O)O
x2 = 0
Conditions | mass density [kg/m3]
293.15 K | 1232.8
298.15 K | 1226.3
303.15 K | 1225.9
308.15 K | 1222.5

CCOS(=O)(=O)[O-].CC[n+]1ccn(C)c1 + CCCCC(=O)O
x2 = 0
Conditions | mass density [kg/m3]
288.15 K | 1236.3
293.15 K | 1232.8
298.15 K | 1226.3
303.15 K | 1225.9
308.15 K | 1222.5
313.15 K | 1216

CC(C)C(=O)O + CCOS(=O)(=O)[O-].CC[n+]1ccn(C)c1
mass density [kg/m3]
Conditions | 288.15 K | 293.15 K | 298.15 K | 303.15 K | 308.15 K | 313.15 K
x1 = 0.1122 | 1221.5 | 1217.9 | 1214.3 | 1210.9 | 1207.5 | 1204.1
x1 = 0.2295 | – | – | 1196.6 | 1193 | 1189.5 | 1186
x1 = 0.3297 | 1186.2 | – | 1178.9 | 1175.4 | 1171.8 | 1168.3
x1 = 0.4305 | 1166 | 1162.3 | – | 1155 | 1151.4 | 1147.7
x1 = 0.5464 | 1139.1 | 1135.4 | – | 1128 | 1124.3 | 1120.5
x1 = 0.6412 | – | 1109.9 | 1106.1 | 1102.3 | 1098.5 | 1094.5
x1 = 0.728 | 1086.4 | 1082.3 | 1078.3 | 1074.4 | 1070.5 | 1066.3
x1 = 0.8127 | 1054.6 | – | – | 1042.2 | 1038 | 1033.7
x1 = 0.9073 | 1009.5 | 1005.2 | 1000.8 | 996.5 | 992.1 | 988
x1 = 0.9336 | 994.1 | 989.8 | – | – | 976.8 | –
x1 = 0.9576 | 979.5 | – | 970.6 | 966.3 | 961.7 | 957.1
x1 = 1 | 952.8 | 947.8 | 942.7 | – | 932.6 | 927.5

CCCCC(=O)O + CCOS(=O)(=O)[O-].CC[n+]1ccn(C)c1
mass density [kg/m3]
Conditions | 288.15 K | 293.15 K | 298.15 K | 303.15 K | 308.15 K | 313.15 K
x1 = 0.0974 | – | 1214.7 | 1211.2 | 1207.7 | 1204.3 | 1200.8
x1 = 0.1949 | 1201.5 | – | 1194.4 | 1190.9 | 1187.4 | 1183.9
x1 = 0.2975 | 1181.8 | – | 1174.6 | – | 1167.5 | –
x1 = 0.3947 | – | – | 1153.7 | 1150.1 | – | 1142.9
x1 = 0.495 | 1136.7 | 1133 | 1129.3 | 1125.7 | 1122.1 | 1118.5
x1 = 0.595 | – | – | 1102.2 | 1098.5 | – | 1091.2
x1 = 0.6941 | 1079 | 1075.2 | 1071.5 | 1067.7 | 1063.9 | 1060.3
x1 = 0.7905 | 1044.1 | 1040.2 | 1036.3 | 1032.4 | 1028.5 | 1024.6
x1 = 0.8965 | 997.9 | 993.7 | 989.6 | 985.4 | 981.3 | 977.2
x1 = 0.926 | 983 | 979 | 974.7 | 970.5 | 966.2 | 962
x1 = 0.9529 | 969.4 | – | 960.6 | – | 952 | 947.8
x1 = 1 | 943.9 | 939.4 | – | 930.2 | – | 921.1
